From article PMC4336329 (PLoS ONE, 2015)
Hit rate of the full screen: of about 310,000 compounds, about 14,000 (4.5%) showed an effect of 50% or more. The effect is printed as a negative number. The list shows a part of the results.

What follows are compounds tested against human ether-à-go-go-related gene (hERG) potassium channel (human, UniProt Q12809) (assay: primary screen, population patch clamp on CHO cells stably expressing hERG).
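Further: peak tail current of the secondary pulse compared with the same well before compound.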

human ether-à-go-go-related gene (hERG) potassium channel, sequence (Q12809 whole entry, looked up): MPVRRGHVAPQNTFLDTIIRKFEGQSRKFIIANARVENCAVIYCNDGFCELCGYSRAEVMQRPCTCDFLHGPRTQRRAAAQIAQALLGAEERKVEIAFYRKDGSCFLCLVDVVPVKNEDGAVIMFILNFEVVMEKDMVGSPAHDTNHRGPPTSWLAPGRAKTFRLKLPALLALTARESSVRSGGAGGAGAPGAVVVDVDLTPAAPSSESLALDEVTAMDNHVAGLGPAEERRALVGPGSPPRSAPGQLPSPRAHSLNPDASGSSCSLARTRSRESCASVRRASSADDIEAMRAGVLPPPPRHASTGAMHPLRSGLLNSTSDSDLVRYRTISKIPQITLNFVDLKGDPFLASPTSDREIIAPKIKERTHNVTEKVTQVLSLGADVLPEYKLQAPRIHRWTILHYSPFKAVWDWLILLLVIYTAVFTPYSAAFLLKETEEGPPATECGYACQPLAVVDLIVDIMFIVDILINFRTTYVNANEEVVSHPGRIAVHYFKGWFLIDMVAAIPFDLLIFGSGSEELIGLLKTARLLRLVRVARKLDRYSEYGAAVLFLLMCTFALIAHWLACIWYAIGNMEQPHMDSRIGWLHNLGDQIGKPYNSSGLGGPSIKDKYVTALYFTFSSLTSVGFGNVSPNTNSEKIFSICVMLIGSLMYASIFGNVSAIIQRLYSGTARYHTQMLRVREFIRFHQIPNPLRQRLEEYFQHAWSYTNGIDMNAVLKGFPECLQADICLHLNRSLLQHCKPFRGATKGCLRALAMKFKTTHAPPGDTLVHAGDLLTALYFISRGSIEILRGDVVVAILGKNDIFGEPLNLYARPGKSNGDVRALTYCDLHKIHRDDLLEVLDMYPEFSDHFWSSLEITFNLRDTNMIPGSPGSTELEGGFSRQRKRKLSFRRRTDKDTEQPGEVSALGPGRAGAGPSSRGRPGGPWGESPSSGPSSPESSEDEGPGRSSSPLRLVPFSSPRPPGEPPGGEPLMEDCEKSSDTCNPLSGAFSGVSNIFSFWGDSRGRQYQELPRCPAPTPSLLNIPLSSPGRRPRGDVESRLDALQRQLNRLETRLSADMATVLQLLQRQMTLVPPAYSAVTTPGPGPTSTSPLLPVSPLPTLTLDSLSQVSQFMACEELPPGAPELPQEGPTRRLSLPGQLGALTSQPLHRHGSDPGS

Going from `O=C1c2ccccc2C(=O)N1CC1c2ccccc2CCN1S(=O)(=O)c1ccccc1` (centres unmarked) to `CC(CCc1ccccc1)NC(=O)Cn1cccc1C(=O)c1ccccc1` (centres unmarked), the “hERG current change (%, negative = inhibition) at 10uM” value rises from 5.9% to 9.36%.

Going from `COc1cccc(C(=O)C2CN(C)CC2c2ccc(Cl)cc2)c1` (centres unmarked) to `COc1cccc(NC(=O)[C@H](CC(C)C)NC(=O)[C@@H]2Cc3ccccc3CN2)c1`, the “hERG current change (%, negative = inhibition) at 10uM” value rises from -66.4% to -16%.

Going from `O=C(Nc1ccc(Br)cc1)C1CCCN(C2=NS(=O)(=O)c3ccccc32)C1` (centres unmarked) to `O=C(Oc1cccc(NC2=NS(=O)(=O)c3ccccc32)c1)c1ccncc1`, the “hERG current change (%, negative = inhibition) at 10uM” value rises from -29.1% to 11.2%.

Going from `COc1cnc(-c2ccccn2)nc1Oc1ccc(F)cc1F` to `COc1ccc(CC2C(=O)NC(=O)N(c3ccccc3)C2=O)c(OC)c1` (centres unmarked), the “hERG current change (%, negative = inhibition) at 10uM” value rises from 4.34% to 13.2%.

Compared with `CCCc1cc(C(=O)OCC(=O)N2CCN(c3ccc(OC)cc3)CC2)sc1C`, `COc1ccc(-n2c(C)cc(/C=C3/SC(=O)N(CC(=O)N4CCOCC4)C3=O)c2C)cc1` is higher in “hERG current change (%, negative = inhibition) at 10uM” value: -41.8% for the first, 9.21% for the second.

Compared with `Cc1c(C)c2ccc(OCC(=O)NCCCN3CCCC3=O)cc2oc1=O`, `COc1ccc(CCNC(=O)COc2ccc(S(=O)(=O)N3CCOCC3)cc2)cc1` is lower in “hERG current change (%, negative = inhibition) at 10uM” value: 9.72% for the first, 3.06% for the second.

First: C=CC[n+]1c(-c2ccc(OC)cc2)csc1NNC(=O)Nc1ccccc1.[Br-]
Second: O=C(COC(=O)c1cnccn1)c1ccc(-c2ccccc2)cc1
The “hERG current change (%, negative = inhibition) at 10uM” value of the first is lower: 7.96% for the first, 11.9% for the second.

First: Cc1cc(NC(=O)C(C)SCC(=O)OCc2c(Cl)cccc2Cl)no1 (centres unmarked)
Second: Cc1cccc(C)c1NC(=O)COC(=O)c1cccnc1
The “hERG current change (%, negative = inhibition) at 10uM” value of the first is lower: -5.9% for the first, 4.43% for the second.

First: O=C1CC(=O)CC(c2ccco2)C1
Second: O=C1CC(C(=O)Nc2ccccc2)C2(CCCCC2)O1 (centres unmarked)
The “hERG current change (%, negative = inhibition) at 10uM” value of the first is lower: 8.17% for the first, 13.6% for the second.

Going from `CC1CCCN(C(=O)COc2ccc3c(c2)OCO3)C1` (centres unmarked) to `CC(Nc1ccc(F)cc1F)C(=O)NC(=O)NC1CCCCC1` (centres unmarked), the “hERG current change (%, negative = inhibition) at 10uM” value rises from 5.07% to 24.5%.

First: CC(C)C[C@H](NC(=O)OC(C)(C)C)c1nnc(SCc2ccccc2)o1
Second: N#Cc1c(NC(=O)CSc2nnc(-c3ccccc3)o2)sc2c1CCCC2
The “hERG current change (%, negative = inhibition) at 10uM” value of the first is lower: -27.7% for the first, -0.683% for the second.

Compared with `O=C(NCCN1CCOCC1)c1c[nH]c2ccc(S(=O)(=O)N3CCOCC3)cc2c1=O`, `O=C(OCC(=O)c1c[nH]c2ccccc12)c1cccc(O)c1` is lower in “hERG current change (%, negative = inhibition) at 10uM” value: 8.53% for the first, -5.24% for the second.

Compared with `C#CCOCCOCCOCCNc1nc(N2CCN(C(=O)CCCCCCCCCCNC(=O)Cn3cc(C[C@@H](C)O)nn3)CC2)nc(N2CCN(C(=O)CCCCCCCCCCNC(=O)[C@H](CCCCN)n3cc(C[C@@H](C)CC)nn3)CC2)n1`, `CCn1c(=O)c(CCC(=O)N2CCN(c3ccccn3)CC2)c(C)c2c(C)nn(-c3cccc(C)c3)c21` is lower in “hERG current change (%, negative = inhibition) at 10uM” value: 1.18% for the first, -2.32% for the second.

Compared with `Cc1onc(-c2ccccc2Cl)c1C(=O)NC(=S)NCc1cccnc1`, `COc1ccc(S(=O)(=O)NCc2ccc(C(=O)NCc3cccnc3)cc2)cc1` is higher in “hERG current change (%, negative = inhibition) at 10uM” value: -29.5% for the first, -1.21% for the second.

First: CC(C)(C)C1CCc2c(sc(NC(=O)C3CCCO3)c2C(N)=O)C1 (centres unmarked)
Second: CC1(C)Cc2c(sc(NC(=O)C(C)(C)C)c2C#N)C(C)(C)N1
The “hERG current change (%, negative = inhibition) at 10uM” value of the first is lower: -20.7% for the first, 3.16% for the second.

Compared with `CCC1CN(C(=O)NCc2ccc(F)cc2)c2cc(C)ccc2O1` (centres unmarked), `COc1ccc(C(=O)NC2CCCc3c2cnn3-c2cccc(C)c2C)o1` (centres unmarked) is lower in “hERG current change (%, negative = inhibition) at 10uM” value: -18.1% for the first, -30.6% for the second.

Going from `Cn1ncnc1SCc1cn2cccnc2n1` to `CCCC(c1nnnn1C1CCCCC1)N1CCN(c2ncccn2)CC1.Cl` (centres unmarked), the “hERG current change (%, negative = inhibition) at 10uM” value falls from 14.2% to -10.1%.

Compared with `COc1cccc(CNS(=O)(=O)c2cc3c(cc2C)NC(=O)CO3)c1`, `Cc1ccc(-c2nn3c(C)nnc3c3ccccc23)cc1S(=O)(=O)NCCO` is higher in “hERG current change (%, negative = inhibition) at 10uM” value: -25.4% for the first, 11% for the second.

Compared with `CC(C(=O)N1CCN(c2ccc([N+](=O)[O-])cc2)CC1)N1C(=O)C2CC=CCC2C1=O` (centres unmarked), `O=C(COC(=O)c1ccccc1)Nc1ccccc1N1CCOCC1` is higher in “hERG current change (%, negative = inhibition) at 10uM” value: -72.2% for the first, -7.41% for the second.

First: CCN(CC)CCNC(=O)/C(=C\c1cccn1C)NC(=O)c1cccs1
Second: COc1ccc(C(=O)NCCCCCCNC(=O)c2ccc(OC)cc2)cc1
The “hERG current change (%, negative = inhibition) at 10uM” value of the first is lower: -23.6% for the first, -5.13% for the second.

First: Cc1ccc(N2C(=O)CSC2=S)cc1C
Second: COC(=O)c1sc(SC)c(S(=O)(=O)C(C)C)c1N/N=C(\C#N)C(=O)c1ccccc1
The “hERG current change (%, negative = inhibition) at 10uM” value of the first is higher: 12.6% for the first, -8.18% for the second.

Going from `CCOc1ccc(C(=O)NCc2ccco2)cc1Cl` to `CCCn1c(N)c(C(=O)CSc2nnc(N)s2)c(=O)[nH]c1=O`, the “hERG current change (%, negative = inhibition) at 10uM” value falls from -4.19% to -15%.
